# The whole screen tested about 390,000 compounds, of which about 17,000 (4.4%) were called active. Inconclusive means that the source gave no clear call. Such entries were picked first, then a sample of the others. Calls come from the whole dose curve; as a rule, active = well fitted inhibition curve with a large enough effect; inconclusive = small, poorly fitted or top-dose-only effect; inactive = no such curve, though single readings can be large or run the other way. Where the call is inconclusive, the potency comes from a doubtful curve fit.
# Biological target: Lysine-specific demethylase 4A (Homo sapiens) (UniProt O75164)
# Sequence of UniProt O75164 (O75164 whole entry, looked up, the tested form may be a part): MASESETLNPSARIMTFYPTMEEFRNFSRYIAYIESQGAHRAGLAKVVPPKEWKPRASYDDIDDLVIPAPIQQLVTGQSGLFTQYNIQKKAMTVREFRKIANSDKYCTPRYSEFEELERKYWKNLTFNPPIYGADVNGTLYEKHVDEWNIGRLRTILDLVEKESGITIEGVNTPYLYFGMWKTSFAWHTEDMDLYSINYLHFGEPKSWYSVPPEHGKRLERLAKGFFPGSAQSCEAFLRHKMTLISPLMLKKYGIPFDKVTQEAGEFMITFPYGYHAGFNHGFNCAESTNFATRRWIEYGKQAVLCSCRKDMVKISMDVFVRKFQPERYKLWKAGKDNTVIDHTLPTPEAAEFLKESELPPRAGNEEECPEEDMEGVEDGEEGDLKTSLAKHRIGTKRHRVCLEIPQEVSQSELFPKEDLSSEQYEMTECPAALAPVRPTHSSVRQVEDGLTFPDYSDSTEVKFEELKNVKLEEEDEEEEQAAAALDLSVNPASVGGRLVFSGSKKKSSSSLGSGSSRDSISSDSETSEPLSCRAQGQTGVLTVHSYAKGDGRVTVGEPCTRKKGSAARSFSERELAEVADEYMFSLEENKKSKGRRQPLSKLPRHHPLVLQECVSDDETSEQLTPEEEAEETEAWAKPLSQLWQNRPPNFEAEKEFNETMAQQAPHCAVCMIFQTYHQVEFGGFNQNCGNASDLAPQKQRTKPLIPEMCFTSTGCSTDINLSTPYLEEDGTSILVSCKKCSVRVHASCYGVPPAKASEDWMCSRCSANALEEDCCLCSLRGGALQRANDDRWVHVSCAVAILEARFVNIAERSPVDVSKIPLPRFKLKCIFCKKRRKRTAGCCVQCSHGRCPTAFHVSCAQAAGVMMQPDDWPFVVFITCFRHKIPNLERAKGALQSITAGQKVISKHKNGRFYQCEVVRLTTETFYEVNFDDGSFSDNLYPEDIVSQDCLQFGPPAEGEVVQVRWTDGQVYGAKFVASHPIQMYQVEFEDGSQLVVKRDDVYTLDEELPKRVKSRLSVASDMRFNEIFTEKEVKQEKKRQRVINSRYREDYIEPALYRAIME
# Experiment: qHTS Assay for Inhibitors of JMJD2A-Tudor Domain; note: nearly all actives have a fitted effect of over 50% in size
# Conditions: AlphaScreen JMJD2A-Tudor / H3K4me3 peptide binding; activity change, negative = inhibition: at 114 µM (top of the series)
# % is set by controls: 0 for no effect and ±100 for the full control effect; potency is the fitted concentration of half-maximal effect; tags give direction and shape of the fitted curve.
Structure (SMILES),Potency,"activity change, negative = inhibition"
CSCCC(C(=O)OC1CCOC1=O)N1C(=O)c2ccccc2C1=O (centres undefined),"inconclusive: 79.4 µM [inhibitor, partial curve]",–
CC(=O)c1cccc(NC(=O)c2nc3ccccc3nc2N2CCCCC2)c1,"inconclusive: 50.1 µM [inhibitor, partial curve]",–
O=C(Nc1ccc(F)cc1Cl)C1Cc2ccccc2N1C(=O)c1ccccc1 (centres undefined),–,inactive: -6.62%
Nc1ccc2nc(CN3CCOCC3)[nH]c2c1,"inconclusive: 89.1 µM [inhibitor, single point]",–
Cc1ccc2[nH]c(C)c(CC(=O)NCc3ccccc3)c2c1,"inconclusive: 100 µM [inhibitor, partial curve]",–
O=C(COc1ccccc1)Nc1ccc(N2CCCCC2)cc1,"inconclusive: 8.91 µM [inhibitor, full curve, poor fit]",–
Cc1ccc(-n2c(C(C)n3nc(C)c([N+](=O)[O-])c3C)n[nH]c2=S)cc1 (centres undefined),active: 12.6 µM,–
CCN(CC)C(=O)c1c[nH]c2ccc(S(=O)(=O)Nc3cc(C)cc(C)c3)cc2c1=O,"inconclusive: 89.1 µM [inhibitor, single point]",–
CCN(CC)c1ccc(CNCCCSc2nnnn2C)cc1,"inconclusive: 56.2 µM [inhibitor, partial curve]",–
CCN(C(=O)COC(=O)c1nc(Cl)ccc1Cl)C1CCS(=O)(=O)C1 (centres undefined),–,inactive: -13.7%
COc1ccccc1-n1c(N)c(C(N)=O)sc1=S,–,inactive: -14%
CC(Nc1nc(-c2ccc(F)cc2)cs1)c1nc2cc(C(F)(F)F)ccc2n1CCCO (centres undefined),"inconclusive: 44.7 µM [inhibitor, full curve, poor fit]",–
C=CCN1c2ccccc2[C@]23C[C@@H](C(=O)OC)N(C(=O)CC(C)C)C2=NC(C(=O)OC)=C(C(=O)OC)[C@H]13,"inconclusive: 20 µM [inhibitor, full curve, poor fit]",–
CCOC(=O)N1CCN(C(=O)COC(=O)CNC(=O)c2ccc(C)cc2)CC1,–,inactive: -10.8%
C(=N\Nc1nc2ccccc2[nH]1)/c1ccc2c(c1)OCCO2,"inconclusive: 56.2 µM [inhibitor, partial curve]",–
O=S(=O)(NCC(O)COCc1ccco1)c1cccs1 (centres undefined),"inconclusive: 56.2 µM [inhibitor, partial curve]",–
COc1ccc(N=C2C(=O)N3c4c(cccc42)C(C)=CC3(C)C)cc1,active: 14.1 µM,–
CCOC(=O)C(C(=O)NCCCN1CCOCC1)C1CCCCC1 (centres undefined),–,inactive: -17%
CC(C(=O)Nc1cccc([N+](=O)[O-])c1)N1CCN(C/C=C/c2ccccc2)CC1 (centres undefined),"inconclusive: 50.1 µM [inhibitor, partial curve]",–
Cc1ccc(C2=N/C(=C/N3CCOCC3)C(=O)O2)cc1,"inconclusive: 100 µM [inhibitor, single point]",–
CCOC(=O)C1=C(C)N=c2s/c(=C\c3ccc(O)c([N+](=O)[O-])c3)c(=O)n2C1c1ccccc1OC (centres undefined),active: 10 µM,–
Fc1ccc(Nc2ncnc3sc4c(c23)CCC4)cc1,–,inactive: 4.29%

Structure (SMILES),Potency,"activity change, negative = inhibition"
O=C1CC(c2c(Cl)cccc2Cl)c2c(ccc3ccccc23)N1 (centres undefined),"inconclusive: 17.8 µM [inhibitor, partial curve]",–
COc1ccc(CC(=O)Nc2ccc(S(=O)(=O)N3CCCC3)cc2)c(OC)c1,–,inactive: 4.81%
CCN(CC)S(=O)(=O)c1ccc(C)c(NC(=S)N2CCN(Cc3ccc4c(c3)OCO4)CC2)c1,"inconclusive: 56.2 µM [inhibitor, partial curve]",–
CCc1ccccc1NC(=O)CCCSc1nc(-c2ccco2)cc(C(F)(F)F)n1,–,inactive: -11%
O=C(NCC1CCCO1)C(c1cccs1)N(Cc1ccccc1)C(=O)c1ccc(-c2ccccc2)[nH]1 (centres undefined),"inconclusive: 28.2 µM [inhibitor, partial curve]",–
CCNC(=S)Nc1ccc(S(=O)(=O)Nc2cc(C)nc(C)n2)cc1,–,inactive: -6.16%
Cc1cccc(C)c1NC(=O)CN1CCN(CCCC(c2ccc(F)cc2)c2ccc(F)cc2)CC1,"inconclusive: 89.1 µM [inhibitor, partial curve]",–
COc1ccc(N2CCN(c3ncnc4c3cnn4-c3ccc(F)cc3)CC2)cc1,–,inactive: -4.59%
COc1cccc(-c2nc3c(c(SCC(=O)N4CCOCC4)n2)Cc2c(CO)cnc(C)c2O3)c1,"inconclusive: 50.1 µM [inhibitor, partial curve]",–
O=C(N/N=C/c1c[nH]c2ccccc12)c1sc2ccccc2c1Cl,"inconclusive: 50.1 µM [inhibitor, partial curve]",–
Cc1cccc(NC(=O)CSCC(=O)OCc2ccccn2)c1,"inconclusive: 20 µM [inhibitor, partial curve]",–
Cc1ccc(-c2nn(-c3cc(N4CCNCC4)ccc3[N+](=O)[O-])c(=O)c3ccccc23)cc1,–,inconclusive: -55.8% [inhibitor]
FC(F)(F)c1cnc(C(c2ccccn2)c2ncn[nH]2)c(Cl)c1 (centres undefined),active: 15.8 µM,–
Cc1ccc(-n2ncc(C(=O)NCCN3CCc4ccccc4C3)c2C2CCN(C(=O)OC(C)(C)C)CC2)cc1C,"inconclusive: 89.1 µM [inhibitor, partial curve]",–
O=C(Cn1cncn1)N/N=C/c1cc([N+](=O)[O-])ccc1O,active: 25.1 µM,–
COc1cc2nc(N(CCN(C)C)C(=O)c3ccc4ccccc4c3)sc2cc1OC,"inconclusive: 56.2 µM [inhibitor, partial curve]",–
Cc1cccc(NCc2ccc([N+](=O)[O-])s2)c1,"inconclusive: 63.1 µM [inhibitor, partial curve, poor fit]",–
Cc1[nH]nc2c1C1(C(=O)N(Cc3ccc(Cl)cc3)c3ccccc31)C(C#N)=C(N)O2 (centres undefined),"inconclusive: 56.2 µM [inhibitor, partial curve]",–
CN(C)c1ccc(/C=N/N(Cc2ccccc2)c2ccccc2)cc1,"inconclusive: 31.6 µM [inhibitor, partial curve]",–
CC1CCN(C(c2ccccc2)c2sc3nc(-c4ccco4)nn3c2O)CC1 (centres undefined),–,inactive: -11.4%
O=C1c2ccccc2C(=O)c2c1cccc2N(CCO)CCO,"inconclusive: 50.1 µM [inhibitor, partial curve]",–
COc1ccc(CNS(=O)(=O)c2cc3c(cc2Cl)N(C(C)=O)CCO3)cc1,–,inactive: -21.4%
